Data: the BET-seq Pho4 binding data (Le et al. 2018)
The other results are listed elsewhere or left out. These are noisy estimates, calculated here from bound and input reads.

molecular target: T1, Pho4 (S. cerevisiae) (UniProt P07270); experiment: relative binding free energy (BET-seq); higher = weaker binding; details: reference: library average
T1 sequence: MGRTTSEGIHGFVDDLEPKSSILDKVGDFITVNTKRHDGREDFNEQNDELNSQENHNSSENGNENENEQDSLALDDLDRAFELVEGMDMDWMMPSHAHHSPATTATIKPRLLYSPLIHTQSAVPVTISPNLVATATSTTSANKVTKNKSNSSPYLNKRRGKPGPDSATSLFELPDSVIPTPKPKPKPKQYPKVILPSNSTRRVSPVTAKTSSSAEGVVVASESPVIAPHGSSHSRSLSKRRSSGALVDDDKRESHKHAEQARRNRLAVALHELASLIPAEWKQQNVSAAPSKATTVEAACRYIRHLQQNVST

Row | Sequence | relative binding free energy
1 | TAATCCACGTGGTAGT | -0.08 kcal/mol
2 | ATTGACACGTGTTAGA | 0.07 kcal/mol
3 | ATGATCACGTGGAAGA | 0.23 kcal/mol
4 | ATGTTCACGTGGGTTT | 0.24 kcal/mol
5 | GTTGCCACGTGGGTAG | -0.2 kcal/mol
6 | GATGACACGTGAGTGG | 0.11 kcal/mol
7 | GTAATCACGTGCATTT | 0.25 kcal/mol
8 | ATGCGCACGTGGATGG | -0.15 kcal/mol
9 | GATTGCACGTGGACGG | 0.1 kcal/mol
10 | AGTGCCACGTGTGGGA | -0.04 kcal/mol
11 | AGGTACACGTGGGATA | -0.03 kcal/mol
12 | AAGTACACGTGGAAGG | 0.22 kcal/mol
13 | GGTGCCACGTGGGCGC | -0.18 kcal/mol
14 | GATAGCACGTGGGCGA | -0.1 kcal/mol
15 | AATAGCACGTGAATGT | 0.28 kcal/mol
16 | ATGGTCACGTGTTTGT | 0.14 kcal/mol
17 | GGTTGCACGTGGCGAT | -0.04 kcal/mol
18 | AATAGCACGTGTCTTT | -0.01 kcal/mol
19 | TGAGCCACGTGTTCGG | -0.03 kcal/mol
20 | TTAAGCACGTGTGAAA | 0.07 kcal/mol
21 | GCGTGCACGTGTAAGT | 0.05 kcal/mol
22 | AGAGGCACGTGGAAAT | 0.05 kcal/mol
23 | TTCCACACGTGGTTTT | 0.12 kcal/mol

Row | Sequence | relative binding free energy
24 | TTTGGCACGTGAACGA | 0.11 kcal/mol
25 | AATTTCACGTGAACGG | 0.43 kcal/mol
26 | GTAAGCACGTGTGCGG | -0.06 kcal/mol
27 | TCTGTCACGTGAGCGG | 0.21 kcal/mol
28 | TTGGGCACGTGCTTAT | -0.06 kcal/mol
29 | TACTACACGTGTGGAG | 0.23 kcal/mol
30 | GGTATCACGTGGCTTG | 0.15 kcal/mol
31 | TGTCGCACGTGATGGA | -0.01 kcal/mol
32 | AGTTGCACGTGATGAT | 0.09 kcal/mol
33 | TGCAGCACGTGAGAGT | 0.24 kcal/mol
34 | TCTTGCACGTGGTATT | -0.27 kcal/mol
35 | GTGTGCACGTGACTGA | 0.12 kcal/mol
36 | TAGTACACGTGCTTTG | -0.03 kcal/mol
37 | TGGTGCACGTGGGGGG | -0.06 kcal/mol
38 | AGTGACACGTGCGGGG | -0.13 kcal/mol
39 | ATCTACACGTGGGGTT | -0.12 kcal/mol
40 | GTGGTCACGTGGCTTA | 0.15 kcal/mol
41 | GTGTGCACGTGTCTTG | 0.08 kcal/mol
42 | GAACTCACGTGGTGGA | 0.36 kcal/mol
43 | AGGGTCACGTGTACAG | -0.02 kcal/mol
44 | TTTTGCACGTGTCGAG | 0.07 kcal/mol
45 | TTTTGCACGTGGGTGC | -0.14 kcal/mol
46 | TTTTGCACGTGATGCT | 0.04 kcal/mol

Row | Sequence | relative binding free energy
47 | AGGGACACGTGGGGTC | -0.07 kcal/mol
48 | ATGCGCACGTGTATAG | -0.1 kcal/mol
49 | AAGGACACGTGTCGGG | 0.18 kcal/mol
50 | GTTTACACGTGGTTAA | 0.04 kcal/mol
51 | GGTTGCACGTGATGAA | 0.14 kcal/mol
52 | TGTTCCACGTGGGGAA | -0.06 kcal/mol
53 | TAATGCACGTGTATGG | 0.06 kcal/mol
54 | TCGTGCACGTGATTTG | 0.08 kcal/mol
55 | GGGGCCACGTGGTAAT | -0.06 kcal/mol
56 | TAAGGCACGTGATTAA | -0.08 kcal/mol
57 | AAAGGCACGTGCGGAA | 0.01 kcal/mol
58 | TAGGTCACGTGATGGC | 0.24 kcal/mol
59 | GTTAACACGTGGTGTC | 0.12 kcal/mol
60 | TGTGGCACGTGAGACG | 0.05 kcal/mol
61 | AAGGTCACGTGTCAGT | 0.24 kcal/mol
62 | TTATGCACGTGCGTGG | -0.13 kcal/mol
63 | TTATTCACGTGCATTT | 0.34 kcal/mol
64 | TGGCGCACGTGCGTTT | -0.04 kcal/mol
65 | ACTAGCACGTGGTTGG | -0.16 kcal/mol
66 | TGTTACACGTGTGTAA | 0.1 kcal/mol
67 | TTTTCCACGTGATTTT | 0.18 kcal/mol
68 | CTGTACACGTGTATTG | -0.03 kcal/mol
69 | AGTTTCACGTGAAATT | 0.43 kcal/mol

Row | Sequence | relative binding free energy
70 | ATGTACACGTGGGCGG | -0.08 kcal/mol
71 | TGGAACACGTGGTAGA | -0.11 kcal/mol
72 | ATATACACGTGTGGTT | 0.03 kcal/mol
73 | GTGTTCACGTGTTCGT | 0.27 kcal/mol
74 | TTGTACACGTGGAGGT | -0.05 kcal/mol
75 | TTTATCACGTGCAATT | 0.18 kcal/mol
76 | TTTTGCACGTGCAGGT | 0.01 kcal/mol
77 | GTCAACACGTGTGGGA | 0.06 kcal/mol
78 | TTAGTCACGTGTGGCG | 0.13 kcal/mol
79 | TCGGTCACGTGGCAGT | 0.14 kcal/mol
80 | GAATTCACGTGTTATT | 0.3 kcal/mol
81 | AATAGCACGTGTAGAT | 0.24 kcal/mol
82 | ATTTACACGTGTGTCT | 0.15 kcal/mol
83 | GTTGTCACGTGTAATT | 0.22 kcal/mol
84 | GGAGGCACGTGTAGAG | -0.05 kcal/mol
85 | AGGAGCACGTGAAGTG | 0.21 kcal/mol
86 | GTAGGCACGTGTCGAG | -0.09 kcal/mol
87 | TTCTTCACGTGTATGA | 0.23 kcal/mol
88 | TTATTCACGTGGTCGT | 0.12 kcal/mol
89 | TCCTTCACGTGGTATG | 0.24 kcal/mol
90 | TTAGTCACGTGTAAAG | 0.13 kcal/mol
91 | TCATTCACGTGCGTGT | 0.14 kcal/mol
92 | GAGGTCACGTGTGGTC | 0.39 kcal/mol

Row | Sequence | relative binding free energy
93 | TGGATCACGTGCATAT | 0.22 kcal/mol
94 | TGGCGCACGTGGGTTG | -0.21 kcal/mol
95 | TCGGACACGTGGGTTT | -0.05 kcal/mol
96 | TGGTGCACGTGTATGC | -0.07 kcal/mol
97 | TAAGGCACGTGAGTTT | 0.18 kcal/mol
98 | TTGGGCACGTGGTAAA | -0.07 kcal/mol
99 | GTTGCCACGTGAAGGG | 0.24 kcal/mol
100 | GTTTTCACGTGTGGTT | 0.29 kcal/mol
101 | GGGATCACGTGGGATC | 0.17 kcal/mol
102 | ATATACACGTGGGGTG | -0.1 kcal/mol
103 | ATTTGCACGTGTGTAG | 0.04 kcal/mol
104 | CGGTTCACGTGAGTGT | 0.37 kcal/mol
105 | AGTAGCACGTGTAAGT | -0.04 kcal/mol
106 | GGTAGCACGTGTGAGT | 0.04 kcal/mol
107 | TAGTACACGTGGGGGA | -0.05 kcal/mol
108 | AGTAACACGTGTTTGA | 0 kcal/mol
109 | GTCGGCACGTGCTGAG | -0.05 kcal/mol
110 | CGTGACACGTGGTTAG | -0.06 kcal/mol
111 | GGTTGCACGTGTTAAG | 0.05 kcal/mol
112 | ATGTTCACGTGGCGGT | 0.17 kcal/mol
113 | TGGGTCACGTGGGCGC | 0.03 kcal/mol
114 | GGGTGCACGTGCGGCG | -0.1 kcal/mol
115 | GATGGCACGTGGGCTT | -0.22 kcal/mol
